Measured values as given in PubChem BioAssay AID504832 (National Center for Advancing Translational Sciences (NCATS), 2011).
Where “and” joins values, the source holds several entries; their conditions need not be identical. Equal values may be shown once. Among all 310,000 compounds or so, about 18,000 (5.8%) were called active. The shares of active, inactive and inconclusive entries below differ from those in the screen. Calls follow the shape of the dose curve; as a rule, active = well fitted inhibition curve with a large enough effect; inconclusive = small, poorly fitted or top-dose-only effect, or another doubt; inactive = no such curve, though single readings can be large or run the other way. Potencies of inconclusive entries are left out as doubtful fits.

Experiment: Primary qHTS for delayed death inhibitors of the malarial parasite plastid, 48 hour incubation
Details: P. falciparum luciferase growth in erythrocytes; series mostly up to 28.7 µM; activity change, negative = inhibition: at the top concentration
Method in brief: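 Parasite viability was followed by luminescence of a genomically integrated firefly luciferase. Cultures held 0.1% parasitemia at 2% hematocrit (final), incubated under 5% CO2 at 37 C.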
% is scaled to controls: 0 for no effect and ±100 for the full control effect; potency is read from the fitted curve at half-maximal effect; tags tell the direction and shape of the fitted curve.

Q: For Cc1ccc(C)c(Nc2nc(-c3ccncc3)nc3ccccc23)c1, which Potency is on record?
A: The Potency was active: 10.4 µM.

Q: Which “activity change, negative = inhibition” value does the source give for CNC(=O)CCc1nc(-c2ccc(C(C)(C)C)cc2)no1 here?
A: The value was inactive: 193%.

Q: For COCCCn1c(SCC(=O)NC2CCS(=O)(=O)C2)nnc1-c1ccc(Cl)cc1 (stereo unspecified), which “activity change, negative = inhibition” value is on record?
A: The value was inactive: 13.2%.

Q: Which Potency does the source give for CC(C)(C)C(=O)OC/C(N)=N/OC(=O)c1ccccc1 here?
A: The Potency was inconclusive [inhibitor, single point].

Q: With Cc1ccc(C(=O)Nc2nc(-c3ccccn3)cs2)cc1S(=O)(=O)N1CCOCC1 as the molecule, how does the Potency read?
A: Its Potency is active: 1.65 µM.

Q: With COC(=O)COc1ccc2c(=O)c(Oc3ccccc3Br)coc2c1 as the molecule, how does the “activity change, negative = inhibition” value read?
A: The value was inactive: 13.4%.

Q: With CC(C)(Cc1ccc(O)cc1)NC(=O)CC(=O)N/N=C/c1ccc([N+](=O)[O-])cc1 as the molecule, how does the Potency read?
A: The Potency was inconclusive [inhibitor, partial curve, poor fit].

Q: Which Potency does the source give for CCCCN(C)S(=O)(=O)c1ccc(C(=O)Nc2nnc(-c3cccs3)o2)cc1 here?
A: The Potency was inconclusive [inhibitor, partial curve, poor fit].

Q: Which “activity change, negative = inhibition” value does the source give for CCOC(=O)CN1C(=O)S/C(=C/c2ccc(O)c([N+](=O)[O-])c2)C1=O here?
A: The value was inactive: -6.69%.

Q: Which Potency does the source give for CC12CCC(=O)N1C(C(=O)Nc1cc(Cl)ccc1N1CCCC1)CS2 (stereo unspecified) here?
A: The Potency was inconclusive [inhibitor, single point].

Q: With CCOc1ccc(N2C(=O)CC(NCC#N)C2=O)cc1 (stereo unspecified) as the molecule, how does the Potency read?
A: The Potency was inconclusive [inhibitor, partial curve, poor fit].

Q: With CCOc1ccc(OCC)c(S(=O)(=O)NCc2ccccn2)c1 as the molecule, how does the “activity change, negative = inhibition” value read?
A: The value was inactive: 31.5%.

Q: With Cc1ccc2nc(SCC(=O)N/N=C/c3ccco3)cc(C)c2c1 as the molecule, how does the “activity change, negative = inhibition” value read?
A: Its value is inactive: 2.02%.

Q: With CCOc1cccc(N2C(=O)CC(N(CCc3ccc(OC)c(OC)c3)C(=O)CC)C2=O)c1 (stereo unspecified) as the molecule, how does the “activity change, negative = inhibition” value read?
A: Its value is inactive: 0%.

Q: For O=C(Nc1ccccc1N1CCCCC1)C1CCN(C(=O)c2ccc(Cl)cc2)CC1, which Potency is on record?
A: The Potency was inconclusive [inhibitor, partial curve, poor fit].

Q: For COc1ccc(-c2c(C(F)(F)F)oc3cc(OCC(=O)Nc4ccccc4C(F)(F)F)ccc3c2=O)cc1OC, which Potency is on record?
A: The Potency was inconclusive [inhibitor, partial curve].

Q: Which Potency does the source give for OC(CNc1nc(-c2cccnc2)nc2ccccc12)c1ccccc1 (stereo unspecified) here?
A: The Potency was inconclusive [inhibitor, partial curve].

Q: With Nc1ccc(S(=O)(=O)NC2(C(F)(F)F)NC(=O)N(Cc3ccccc3)C2=O)cc1 (stereo unspecified) as the molecule, how does the “activity change, negative = inhibition” value read?
A: Its value is inactive: 3.3%.

Q: Which Potency does the source give for COc1ccc(C2(c3ccc(OC)cc3)NC(=O)N(CC(=O)NC3(C#N)CCCC3)C2=O)cc1 here?
A: The Potency was inconclusive [inhibitor, single point].

Q: Which Potency does the source give for O=C(NC(=S)Nc1cccc2cc(O)ccc12)c1ccco1 here?
A: The Potency was inconclusive [inhibitor, full curve, poor fit].

Q: Which Potency does the source give for CN(C)CC/C=C1\c2ccccc2Sc2ccc(Cl)cc21 here?
A: Its Potency is active: 11.7 µM and active: 15.1 µM.

Q: With COc1cc(/C=N/NC(=S)Nc2cccc(Cl)c2C)ccc1OCC(=O)N1CC(C)OC(C)C1 (stereo unspecified) as the molecule, how does the Potency read?
A: The Potency was active: 9.28 µM.

Q: Which Potency does the source give for Nc1ccc(N2CCCCCC2)cc1 here?
A: The Potency was active: 0.415 µM.

Q: Which Potency does the source give for CCCCC(=O)NC(c1ccccc1OC)c1ccc2cccnc2c1O (stereo unspecified) here?
A: The Potency was active: 1.85 µM.

Q: With COc1ccc(-c2oc3ncn4nc(COc5ccccc5)nc4c3c2-c2ccc(OC)cc2)cc1 as the molecule, how does the Potency read?
A: Its Potency is inconclusive [inhibitor, single point].

Q: With CC(=O)c1sc(NC(=O)c2ccc(F)c(S(=O)(=O)N3CCOCC3)c2)nc1C as the molecule, how does the Potency read?
A: Its Potency is inconclusive [inhibitor, single point].

Q: With CN(C(=O)CN1C(=O)S/C(=C\c2cccc(Cl)c2)C1=O)C1CCS(=O)(=O)C1 (stereo unspecified) as the molecule, how does the Potency read?
A: The Potency was inconclusive [inhibitor, partial curve].

Q: Which Potency does the source give for COc1cc(/C=C/C(=O)NCCc2ccc(S(N)(=O)=O)cc2)ccc1OCC#N here?
A: Its Potency is inconclusive [inhibitor, single point].

Q: Which “activity change, negative = inhibition” value does the source give for COc1ccc(C(=O)Nc2ccc(C)cc2C(=O)c2ccccc2)c(OC)c1 here?
A: The value was inactive: -2.45%.

Q: Which Potency does the source give for COc1ccc(Cc2nnc(NC(=O)Nc3ccc(F)cc3)s2)cc1 here?
A: The Potency was inconclusive [inhibitor, partial curve, poor fit].

Q: With O=C(O)Cc1c(-c2ccccc2)c2cc(Cl)ccc2[nH]c1=O as the molecule, how does the “activity change, negative = inhibition” value read?
A: Its value is inactive: 9.31%.

Q: With CCOC(=O)C(O)(c1ccc(N(CC)S(=O)(=O)c2ccc(C)cc2)cc1)C(F)(F)F (stereo unspecified) as the molecule, how does the Potency read?
A: The Potency was inconclusive [inhibitor, partial curve, poor fit].

Q: Which Potency does the source give for CC(C)[C@@H](C(=O)NC1CCN(Cc2ccccc2)CC1)N1C(=O)N2CCc3c([nH]c4ccccc34)[C@@]2(C)C1=O here?
A: Its Potency is inconclusive [inhibitor, full curve, poor fit].

Q: For COCCNC(=O)c1ccc(-n2c(SCc3cc(F)ccc3F)nc3ccccc3c2=O)cc1, which Potency is on record?
A: Its Potency is inconclusive [inhibitor, single point].

Q: For NS(=O)(=O)c1ccc(O)c(NC(=O)c2ccc([N+](=O)[O-])o2)c1, which Potency is on record?
A: Its Potency is active: 7.38 µM.

Q: For Cc1ccc(C(=O)c2oc3ccccc3c2NC(=O)c2cc(-c3cc(C)ccc3O)n[nH]2)cc1, which Potency is on record?
A: Its Potency is active: 0.329 µM.

Q: With NC(N)=NN=C(/C=C/c1ccc([N+](=O)[O-])o1)/C=C/c1ccc([N+](=O)[O-])o1 as the molecule, how does the Potency read?
A: Its Potency is active: 2.39 µM.

Q: With Cc1oc(/C=N/NC(=O)CN(c2ccccc2Br)S(C)(=O)=O)cc1Br as the molecule, how does the “activity change, negative = inhibition” value read?
A: Its value is inactive: -4.59%.

Q: With Cc1ccc2oc3c(c(=O)c2c1)C(c1cccs1)N(CCCN(C)C)C3=O (stereo unspecified) as the molecule, how does the Potency read?
A: Its Potency is inconclusive [inhibitor, single point].

Q: With COc1ccccc1-c1cn(S(=O)(=O)c2ccc(F)cc2)nc1N as the molecule, how does the Potency read?
A: Its Potency is inconclusive [inhibitor, single point].

Q: For COc1ccc(/C=C2\SC(=S)N(CCCC(=O)Nc3ccc(C(=O)O)cc3)C2=O)cc1OC, which Potency is on record?
A: Its Potency is active: 11.7 µM.

Q: For CCOc1cccc(CN2CCCC(N3CCc4ccccc4C3)C2)c1O (stereo unspecified), which Potency is on record?
A: The Potency was active: 1.65 µM.

Q: With CCN(CCn1cccn1)C(=O)CCc1nnc(Cc2c[nH]c3ccccc23)o1 as the molecule, how does the “activity change, negative = inhibition” value read?
A: Its value is inactive: 4.57%.

Q: With Cc1cc(NC(=O)C(C)Sc2nc(-c3cccs3)nc3ccccc23)no1 (stereo unspecified) as the molecule, how does the Potency read?
A: Its Potency is inconclusive [inhibitor, single point].

Q: With Cc1cccc(NS(=O)(=O)c2cccc(C(=O)N3CCN(S(=O)(=O)c4ccccc4)CC3)c2)c1 as the molecule, how does the Potency read?
A: The Potency was inconclusive [inhibitor, partial curve, poor fit].

Q: With CCOC(=O)[C@H](CCc1ccccc1)N[C@H]1CS[C@H](c2cccs2)CN(CC(=O)O)C1=O as the molecule, how does the Potency read?
A: Its Potency is inconclusive [inhibitor, single point].

Q: With CCOc1ccccc1N1CC(C(=O)N2CCN(Cc3ccc(C#N)cc3)CC2)CC1=O (stereo unspecified) as the molecule, how does the Potency read?
A: Its Potency is inconclusive [inhibitor, single point].

Q: For CCOCCCNC(=O)c1cccc(OC2CCN(S(C)(=O)=O)CC2)c1, which “activity change, negative = inhibition” value is on record?
A: Its value is inactive: 27.7%.

Q: For Nc1nonc1-n1nnc(C(=O)N/N=C/c2ccncc2)c1CSc1ccccc1, which “activity change, negative = inhibition” value is on record?
A: Its value is inactive: 34.5%.

Q: For Cc1c([N+](=O)[O-])cc(C(=O)NCc2ccc(F)cc2)cc1[N+](=O)[O-], which “activity change, negative = inhibition” value is on record?
A: The value was inactive: -24.4%.

Q: Which “activity change, negative = inhibition” value does the source give for Cc1ccc(C2=NN(CCC#N)C(=O)CO2)cc1 here?
A: Its value is inactive: 5.55%.

Q: With CCN(CCCCCN(C)C)Cc1cc2ccccc2o1 as the molecule, how does the Potency read?
A: Its Potency is active: 10.4 µM.

Q: Which Potency does the source give for O=C(O)C(C(O)c1ccccc1)[n+]1ccccc1 (stereo unspecified) here?
A: Its Potency is inconclusive [inhibitor, single point].

Q: With COc1ccc(CNCC(=O)Nc2cc(OC)cc(OC)c2)cc1 as the molecule, how does the Potency read?
A: The Potency was inconclusive [inhibitor, full curve, poor fit].

Q: With CC(C)c1nc(CN2CCCCC2)cc(=O)[nH]1 as the molecule, how does the “activity change, negative = inhibition” value read?
A: Its value is inactive: 27.2%.

Q: With CCN(C(=O)CCc1nnc2ccc(NCc3ccco3)nn12)c1ccccc1 as the molecule, how does the Potency read?
A: Its Potency is inconclusive [inhibitor, partial curve].

Q: Which “activity change, negative = inhibition” value does the source give for O=C(COC(=O)CNS(=O)(=O)/C=C/c1ccccc1)Nc1cccc2ccccc12 here?
A: The value was inactive: 4.4%.

Q: With Cc1cc(C)c(C(=O)CSc2nnc(-c3cccnc3)n2C)c(C)c1 as the molecule, how does the Potency read?
A: Its Potency is active: 11.7 µM.

Q: With COc1cccc(CC(NC(C)=O)C(=O)NC2CCN(c3c4c(nc5ncnn35)CCC4)CC2)c1OC (stereo unspecified) as the molecule, how does the Potency read?
A: Its Potency is inconclusive [inhibitor, partial curve].

Q: Which Potency does the source give for CCc1nnc(NC(=O)c2c(O)c3cccc4c3n(c2=O)CC4)s1 here?
A: The Potency was inconclusive [inhibitor, single point].

Q: Which Potency does the source give for Cc1cc(C)cc(NCc2cc(=O)oc3cc(-c4ccccc4)c(O)cc23)c1 here?
A: The Potency was active: 4.65 µM.

Q: With Cc1sc(NC(=O)c2ccccc2)c(C(c2ccc(Cl)cc2)N2CCN(CCO)CC2)c1C (stereo unspecified) as the molecule, how does the Potency read?
A: Its Potency is active: 8.28 µM.

Q: For Cc1ccc(Cl)cc1NC(=O)CNCC(c1ccccc1)N(C)C (stereo unspecified), which Potency is on record?
A: The Potency was inconclusive [inhibitor, partial curve, poor fit].

Q: With COc1ccccc1OCCn1c(CO)nc2ccccc21 as the molecule, how does the “activity change, negative = inhibition” value read?
A: The value was inactive: 9.17%.

Q: For COc1ccc2c(=O)c3c(=O)n(Cc4ccco4)c(-c4ccccc4)nc3oc2c1, which Potency is on record?
A: The Potency was active: 11.7 µM.

Q: Which Potency does the source give for CC(=O)Nc1ccc(Nc2ncc([N+](=O)[O-])c(Nc3ccc(NC(C)=O)cc3)n2)cc1 here?
A: Its Potency is inconclusive [inhibitor, partial curve].

Q: Which “activity change, negative = inhibition” value does the source give for O=C(/C=C/c1ccccc1)Nc1ccc(NC(=O)c2cccs2)cc1 here?
A: The value was inactive: -2.96%.

Q: With NNC(=O)c1csc(COc2cc(Cl)cc(Cl)c2)n1 as the molecule, how does the “activity change, negative = inhibition” value read?
A: The value was inactive: 2.82%.

Q: With COCCN(C(=O)CSc1nnc(-c2ccc(Cl)cc2)o1)c1c(N)n(CC(C)C)c(=O)[nH]c1=O as the molecule, how does the Potency read?
A: The Potency was inconclusive [inhibitor, single point].

Q: For Cc1ccc(Cl)cc1N1CCN(C(=O)c2noc(C(C)C)c2[N+](=O)[O-])CC1, which Potency is on record?
A: Its Potency is inconclusive [inhibitor, full curve, poor fit].

Q: Which Potency does the source give for Cc1ccc(-n2cc(CNCCCN3CCCC3=O)c(-c3ccc(F)cc3)n2)cc1 here?
A: The Potency was inconclusive [inhibitor, partial curve].
